# Data from the supplement of paper PMC3334620.
# Whole data set: some 33,000 sequences, median “E-score (-0.5 to 0.5)” near -0.035, cut for the highest 2% near 0.34. The list shows a part of the results.
# Target: T1, Mot3 (UniProt P54785)
# T1 sequence: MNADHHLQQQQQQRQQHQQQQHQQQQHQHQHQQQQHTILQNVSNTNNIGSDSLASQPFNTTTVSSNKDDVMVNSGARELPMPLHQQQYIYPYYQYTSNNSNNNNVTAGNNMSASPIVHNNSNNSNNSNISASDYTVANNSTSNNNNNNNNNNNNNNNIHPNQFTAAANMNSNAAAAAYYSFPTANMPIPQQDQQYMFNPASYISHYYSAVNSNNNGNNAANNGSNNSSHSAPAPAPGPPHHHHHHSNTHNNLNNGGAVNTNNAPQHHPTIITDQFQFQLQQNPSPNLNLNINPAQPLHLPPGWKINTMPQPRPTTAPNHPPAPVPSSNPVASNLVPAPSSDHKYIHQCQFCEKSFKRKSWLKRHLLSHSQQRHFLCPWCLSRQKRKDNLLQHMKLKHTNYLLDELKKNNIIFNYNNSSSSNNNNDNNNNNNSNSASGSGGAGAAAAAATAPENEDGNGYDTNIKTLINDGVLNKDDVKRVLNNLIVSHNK
# Experiment: PBM E-score (8-mer binding enrichment) (E-score (-0.5 to 0.5)); higher = stronger / more preferred TF binding; most listed sequences are background and not binding sites
# Conditions: protein concentration: 200 nM; construct: GST-full length
# Summary of the method: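 Yeast transcription factors carrying a GST tag, as full-length proteins or DNA-binding domains, were produced by PURExpress in vitro transcription/translation. About 100-200 nM protein was applied to universal all-10-mer Agilent arrays, double-stranded by primer extension on fresh or once-stripped slides. Bound protein was detected with fluorescent anti-GST, and scans were normalised with masliner. The Universal PBM Analysis Suite gave each ungapped eight-base word, pooled with its reverse complement, an E-score, a modified Wilcoxon-Mann-Whitney statistic.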
row,Sequence,PBM E-score
1,ATCAACGG,-0.0358
2,ACTGGTTG,-0.125
3,GTCCTTGA,0.0337
4,AAAAGCGA,-0.0616
5,CATCGTGC,0.0815
6,CCTATGCG,0.104
7,AACCGTCG,-0.0662
8,ATCCCGCA,0.00244
9,GCATCTTA,-0.0612
10,AACCCCCC,-0.356
11,ATGCCCCC,-0.266
12,CGCAGAGC,-0.218
13,CTAACTGC,-0.181
14,AGCCCCCC,-0.399
15,ACGGCAAA,0.0341
16,CAATATCG,-0.0904
17,ACCCTTTA,0.167
18,CGGAGCCA,-0.223
19,CCATTACA,0.337
20,GAGGGCAC,0.00821
21,ATTATAAG,-0.0293
22,GCTTAGGA,-0.141
23,ACATACAG,0.265
24,CATCAAGG,0.127

row,Sequence,PBM E-score
1,GTACTAAC,0.197
2,CCAATTAC,0.276
3,AATGGTAG,0.117
4,GACCACAA,-0.245
5,GTCGCTGA,-0.0942
6,CCGAAAAC,-0.0182
7,AAGACTGA,-0.0243
8,GAGACTAC,-0.216
9,ACCTACAG,0.0747
10,CTCCGTGA,-0.132
11,GAATAAGA,-0.151
12,CTGGCCGC,-0.246
13,CTCAGTAA,-0.0379
14,CCTGAGTA,0.199
15,AATTAAGC,0.103
16,CTTGGTGA,-0.105
17,AAATGCTG,0.107
18,AGCGATGG,-0.23
19,TCATTGAA,-0.0956
20,GAGCGGGA,-0.177
21,CTGGAATC,-0.0268
22,CATTTCGA,0.0462
23,CACAGGCC,0.0987
24,GGGCACAC,0.178

row,Sequence,PBM E-score
1,TAGAATAA,0.152
2,CATAGCCC,-0.0765
3,ATAAACTG,-0.0611
4,CTTTAACC,0.077
5,AACTATGC,-0.0251
6,ACGTTGAG,0.00685
7,AAGCCAAA,0.00529
8,CCGGAAGG,0.0191
9,CATCTGGC,-0.139
10,AAATTATA,0.0781
11,GCGCGAGC,-0.381
12,CCACCGAG,-0.276
13,CTTGAAAG,0.0362
14,CTATAGGC,0.272
15,AGCTCAAG,-0.242
16,ACTTGTAT,0.173
17,GGGCAACC,-0.175
18,ACACTATG,0.0427
19,ATCAATCC,-0.105
20,ACGAGGTA,-0.00321
21,AAATATTA,0.234
22,CCGTCGAA,-0.24
23,ATAGTCCA,-0.206
24,AGCATCAG,-0.172

row,Sequence,PBM E-score
1,CCCCATAG,-0.123
2,GTGGACAC,-0.0127
3,CCGATTGC,0.123
4,CATATTTC,0.0175
5,CGTTCCCA,-0.192
6,CAACAATG,0.199
7,GGGGTGAC,-0.0631
8,CTGAGTTC,0.0849
9,CTCACTCC,-0.225
10,CTAAGTCC,-0.191
11,GCACGCGA,0.0082
12,CCGCAAAC,-0.0792
13,TACCCAAA,0.11
14,CTGTTCTC,0.0137
15,CGCGAACC,0.0234
16,ATTCCTGC,-0.0225
17,CGACAAAG,0.0929
18,AAGTTTTC,0.0147
19,GCAAACAC,0.117
20,CAAATCTA,0.0716
21,GAGTCTCC,-0.362
22,CCCTCGGC,-0.272
23,CAGAACGC,-0.136
24,GAACCCGA,-0.0111

row,Sequence,PBM E-score
1,AAAAGAAA,0.129
2,GAATGAAC,0.0408
3,AGGTAACA,0.357
4,GCAATCCC,-0.257
5,AAGCAGCG,0.136
6,ACAGTCGA,-0.188
7,GCACTACC,-0.156
8,ATAAGACA,0.0934
9,TGGGAACA,-0.0762
10,CAACTTCA,0.0337
11,AAAGGGCA,0.041
12,AGTTCTGA,-0.093
13,CGCGTATC,0.171
14,AGGTAATC,0.344
15,ATTCCGGG,-0.188
16,AGCCCACG,-0.19
17,ACAACAGC,0.0671
18,CTGCTTAC,-0.00061
19,GTGTCTAA,0.21
20,ACGACTTG,0.00588
21,AAAGTCCT,-0.197
22,ACGCAAAG,0.046
23,AACGTGGA,0.00783
24,CGACGATA,-0.00683

row,Sequence,PBM E-score
1,AAATGCAA,0.00481
2,AGACGAAG,-0.0234
3,GTCCTATA,-0.0781
4,CATGAAGA,-0.0437
5,AAGGGAGT,-0.193
6,ATACCCCA,-0.0898
7,CTTTCTAA,0.0987
8,ACTTACTA,0.0175
9,CGACTCAG,-0.219
10,AAATCCCT,-0.0149
11,ACCCCACC,-0.228
12,CAAGATCA,0.0168
13,AGGATCAA,0.0224
14,ATAATCTG,0.0266
15,AATACGAC,0.0314
16,AACATTCA,0.0411
17,GGCGGCCC,-0.295
18,CCATTAGG,-0.0478
19,GTCGTTGA,0.0555
20,CGAACGAG,-0.0675
21,CGAGAGAG,-0.145
22,CCGGATAC,-0.1
23,AATACATC,0.238
24,GGCCATAA,-0.215

row,Sequence,PBM E-score
1,AGCGGCTC,-0.26
2,AATCTGGA,-0.0335
3,CGGACCGA,-0.122
4,CCTTAAAC,0.0953
5,CATTATTA,0.0961
6,ACCTCGAG,-0.129
7,CACCGCGG,-0.204
8,ACCTCACA,-0.0606
9,CCTATGAA,0.00027
10,GGATACAA,0.262
11,CAGCCCCA,-0.0937
12,GCAAGGTA,0.249
13,CAAAGGCG,0.233
14,ATTGTGAA,0.133
15,AGACATTA,0.183
16,GAGTCTCA,-0.29
17,TGGGGACA,-0.0418
18,CTATGGCC,-0.231
19,TCCATAGA,-0.2
20,GTACACTA,0.138
21,CCTGCCGA,-0.175
22,ATGCCAAG,-0.0387
23,CCAACTCG,0.0438
24,ACGGGTTA,-0.11

row,Sequence,PBM E-score
1,CCCGAGGC,-0.207
2,CGTTGTCC,-0.0232
3,ACACACCC,0.25
4,TGGATAAA,-0.0834
5,ACGTATCC,-0.129
6,CCCTGGAA,-0.297
7,AGCACGGA,0.102
8,TCACAAAA,0.0788
9,CTTGTGTC,0.11
10,CCCGGGAC,-0.237
11,AGAAGACC,-0.114
12,CACATGGC,-0.0654
13,GATTAAAA,0.0197
14,CCGCGTGC,0.0666
15,CATACCAC,-0.015
16,AGGTTCAT,-0.0206
17,CGTAACTC,0.0184
18,AGCTATCC,-0.0683
19,TAGTGTGA,-0.0628
20,AGTCGCGA,-0.17
21,AAGTTACA,0.29
22,CTACACGC,0.356
23,ACAAATGG,0.126
24,CTGTACTA,0.0598
